Data on 10 molecules can be found in PMC10220053.

The chains behind the UniProt entries cited, without tags or fusion partners. Residues count along the entry.
UniProt Q12432, residues 218-401: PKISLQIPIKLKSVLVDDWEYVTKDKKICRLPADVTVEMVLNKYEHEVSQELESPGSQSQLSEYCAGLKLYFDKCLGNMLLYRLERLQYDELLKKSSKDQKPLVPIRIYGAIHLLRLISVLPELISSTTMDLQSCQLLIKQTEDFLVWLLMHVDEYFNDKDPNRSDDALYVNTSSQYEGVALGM

Test [1] has as its target C-terminal MRG domain of Eaf3 (Eaf3^MRG, aa 218–401) (S. cerevisiae) (UniProt Q12432). Kind of test: pull-down; GST pull-down of Eaf7^108–143 (wild type and mutants) with Eaf3^MRG (wild type and mutants); which partner carried GST is not told.
In test [2] the target is Eaf3^MRG–Rco1^PHD1–SID complex (S. cerevisiae) (UniProt Q12432+Q04779). The test can be described thus: ITC; SUMO–Eaf7^108–143 or SUMO alone with Eaf3^MRG or the Eaf3^MRG–Rco1^PHD1–SID complex; both purified. Background: Isothermal titration calorimetry measures the heat released or taken up as one component is titrated into another.
Test [3] addresses C-terminal MRG domain of Eaf3 (Eaf3^MRG, aa 218–401) (S. cerevisiae) (UniProt Q12432). The test can be described thus: pull-down; GST pull-down / affinity pull-down of Eaf3^MRG (wild type and mutants) with Rco1^PHD1–SID (wild type, mutants, truncation); which partner carried GST is not told.

Residue numbers refer to the chain shown, from its start. Names and notes keep the numbering of the source. Results are given in words; binding and its absence hold for the method and conditions named. For some of these results: In cells and extracts the contact can be indirect. Some binding calls cover weakened binding; strength is not graded here.

B1: Eaf7^108–143 L114A (domain or fragment, UniProt P53911 108-143)
chain: EETLLEANNRIRVRKQDFTLPWEEYGELILENARKS
As for B1, the binding entry in test [1] is “binds”.

B2: Eaf7^108–143 F125A (domain or fragment, UniProt P53911 108-143)
chain: B1 chain with A7L, F18A
With B2, the binding entry in test [1] is recorded as “no binding”.

B3: Eaf7^108–143 R121A (domain or fragment, UniProt P53911 108-143)
chain: B1 chain with A7L, R14A
For the molecule B3, the binding result in test [1] is “binds”.

B4: Eaf7^108–143 I118A (domain or fragment, UniProt P53911 108-143)
chain: B1 chain with A7L, I11A
As for B4, the binding entry in test [1] is “binds”.

B5: Eaf7^108–143 D124A (domain or fragment, UniProt P53911 108-143)
chain: B1 chain with A7L, D17A
As for B5, in test [1], the binding entry is “binds”.

B6: SUMO–Eaf7^108–143 (domain or fragment, UniProt P53911 108-143)
chain: B1 chain with A7L
On to B6, for which the binding entry in test [2] is “no binding”.

B7: Eaf7^108–143 L127A (domain or fragment, UniProt P53911 108-143)
chain: B1 chain with A7L, L20A
Regarding B7, the binding result in test [1] was “no binding”.

B8: Eaf7^108–143 E131A (domain or fragment, UniProt P53911 108-143)
chain: B1 chain with A7L, E24A
Regarding B8, in test [1], the binding result was “binds”.

B9: Rco1^PHD1–SID I335A/F336A/L339A (domain or fragment, UniProt Q04779 240-376)
chain: SNASEKIFRDKNNSTIDFENEDFCSACNQSGSFLCCDTCPKSFHFLCLDPPIDPNNLPKGDWHCNECKFKIFINNSMATLKKIESNFIKQNNNVKAAAKALFNIDSHNPKQFQLPNYIKETFPAVKTGSRGQYSDEN
Turning to B9, the binding entry in test [3] is recorded as “binds”.

B10: truncated form of Rco1^PHD1–SID (Rco1^240–313) (domain or fragment, UniProt Q04779 240-313)
chain: SNASEKIFRDKNNSTIDFENEDFCSACNQSGSFLCCDTCPKSFHFLCLDPPIDPNNLPKGDWHCNECKFKIFIN
Take B10: the binding result in test [3] is “no binding”.
